# Data: a collection of fitness landscapes (doi:10.1126/science.1257360)
# The list shows a part of the results.
# B1: PhoQ; a variant is named by its letters at X, in order, P23837 (parent)
# chain: MKKLLRLFFPLSLRVRFLLATAAVVLVLSLAYGMVALIGYSVSFDKTTFRLLRGESNLFYTLAKWENNKLHVELPENIDKQSPTMTLIYDENGQLLWAQRDVPWLMKMIQPDWLKSNGFHEIEADVNDTSLLLSGDHSIQQQLQEVREDDDDAEMTHSVAVNVYPATSRMPKLTIVVVDTIPVELKSSYMVWSWFIYVLSANLLLVIPLLWVAAWWSLRPIEALAKEVRELEEHNRELLNPATTRELTSLVRNLNRLLKSERERYDKYRTTLTDLTHSLKTPLXXLQXXLRSLRSEKMSVSDAEPVMLEQISRISQQIGYYLHRASMRGGTLLSRELHPVAPLLDNLTSALNKVYQRKGVNISLDISPEISFVGEQNDFVEVMGNVLDNACKYCLEFVEISARQTDEHLYIVVEDDGPGIPLSKREVIFDRGQRVDTLRPGQGVGLAVAREITEQYEGKIVAGESMLGGARMEVIFGRQHSAPKDE
# Variants of: B1
# Experiment: enrichment ratio after two sorts for PhoP signalling (ratio (wild type AVST 3.29)); higher = more functional
# Settings: with PhoP (E. coli)
row,Variant,enrichment ratio
1,KHKV,≤ 0.25
2,IWLE,≤ 0.25
3,GNCN,≤ 0.25
4,AVGI,≤ 0.25
5,AWNN,≤ 0.25
6,AVQQ,≤ 0.25
7,TEKV,≤ 0.25
8,TPAY,≤ 0.25
9,HCTL,≤ 0.25
10,KTWD,≤ 0.25
11,ISDN,≤ 0.25
12,FHAF,≤ 0.25
13,SQEA,≤ 0.25
14,FSYQ,≤ 0.25
15,LTRC,≤ 0.25
16,VKLA,≤ 0.25
17,IDLF,≤ 0.25
18,DMPH,≤ 0.25
19,VDKR,≤ 0.25
20,LNVQ,≤ 0.25
21,FMVW,0.328
22,KQWL,≤ 0.25
23,MIYG,6.45
24,AAQR,≤ 0.25
25,SLGD,≤ 0.25

row,Variant,enrichment ratio
1,EAVY,≤ 0.25
2,DACP,≤ 0.25
3,PGVV,≤ 0.25
4,LVSK,≤ 0.25
5,NVIL,≤ 0.25
6,YSSQ,≤ 0.25
7,IGIS,≤ 0.25
8,LPHD,≤ 0.25
9,VSNA,≤ 0.25
10,NQHA,≤ 0.25
11,IYDW,≤ 0.25
12,TTQS,7.92
13,TCHI,3.98
14,LDAR,≤ 0.25
15,DYIY,≤ 0.25
16,PGIQ,≤ 0.25
17,RGHF,≤ 0.25
18,MSND,≤ 0.25
19,RETK,≤ 0.25
20,QGKM,≤ 0.25
21,EDWI,≤ 0.25
22,YVIM,≤ 0.25
23,WEQR,≤ 0.25
24,PPPA,≤ 0.25
25,VLYK,≤ 0.25

row,Variant,enrichment ratio
1,WHFF,≤ 0.25
2,DARY,≤ 0.25
3,TVDR,2.02
4,FHRT,≤ 0.25
5,NGVI,≤ 0.25
6,APQL,≤ 0.25
7,ESHY,≤ 0.25
8,ELHP,≤ 0.25
9,GYHI,≤ 0.25
10,MDGP,≤ 0.25
11,VDDC,≤ 0.25
12,TRAI,0.306
13,DCDQ,≤ 0.25
14,KGLP,≤ 0.25
15,NPLD,≤ 0.25
16,DDEH,≤ 0.25
17,KVLT,≤ 0.25
18,EKYK,≤ 0.25
19,HKKI,≤ 0.25
20,YHRV,≤ 0.25
21,EMQC,≤ 0.25
22,HHPT,≤ 0.25
23,IMEF,≤ 0.25
24,PLQT,≤ 0.25
25,NNTC,≤ 0.25

row,Variant,enrichment ratio
1,AARK,≤ 0.25
2,LRLR,≤ 0.25
3,PPWL,≤ 0.25
4,DWEY,≤ 0.25
5,FEYQ,≤ 0.25
6,DSLE,≤ 0.25
7,YPHD,≤ 0.25
8,FMGP,≤ 0.25
9,CPIT,≤ 0.25
10,LNES,≤ 0.25
11,WAPT,≤ 0.25
12,VIDW,≤ 0.25
13,YYYD,≤ 0.25
14,IASE,≤ 0.25
15,QEGI,≤ 0.25
16,FCHC,≤ 0.25
17,SSMS,11.7
18,NLIG,≤ 0.25
19,DLTR,≤ 0.25
20,TFDY,≤ 0.25
21,MVWF,≤ 0.25
22,MHTC,≤ 0.25
23,GVID,≤ 0.25
24,ANNN,≤ 0.25
25,GHCH,≤ 0.25

row,Variant,enrichment ratio
1,DYHG,≤ 0.25
2,LWQI,≤ 0.25
3,GSHI,≤ 0.25
4,IGDQ,≤ 0.25
5,QSAY,1.34
6,SHGD,≤ 0.25
7,LFKC,≤ 0.25
8,PRKH,≤ 0.25
9,MIVI,3.55
10,YKNQ,≤ 0.25
11,KRVL,≤ 0.25
12,DHNK,≤ 0.25
13,PLWQ,≤ 0.25
14,RFFA,≤ 0.25
15,PHCT,≤ 0.25
16,YVTS,≤ 0.25
17,ESGL,≤ 0.25
18,PSCF,≤ 0.25
19,GQAH,≤ 0.25
20,PFEC,≤ 0.25
21,SQAH,4.76
22,RVFW,≤ 0.25
23,GESE,2.88
24,SHEP,≤ 0.25
25,GWIA,≤ 0.25

row,Variant,enrichment ratio
1,ISWR,≤ 0.25
2,YPGL,≤ 0.25
3,SGGY,22.8
4,EGKH,≤ 0.25
5,NYEP,≤ 0.25
6,FNRV,≤ 0.25
7,SKRK,≤ 0.25
8,PHTG,≤ 0.25
9,ICVE,≤ 0.25
10,NKNT,≤ 0.25
11,TNWK,≤ 0.25
12,NRQC,≤ 0.25
13,FKFM,≤ 0.25
14,MNLF,≤ 0.25
15,TEDC,≤ 0.25
16,TVCQ,1.7
17,INFG,≤ 0.25
18,IARF,≤ 0.25
19,HTLL,8.34
20,RIRE,≤ 0.25
21,GRCM,≤ 0.25
22,IFMM,≤ 0.25
23,PIPI,≤ 0.25
24,FPVC,≤ 0.25
25,QLST,≤ 0.25

row,Variant,enrichment ratio
1,FYRE,≤ 0.25
2,TMFS,≤ 0.25
3,QRKF,≤ 0.25
4,YLYV,≤ 0.25
5,EHTF,≤ 0.25
6,FNYH,≤ 0.25
7,RRQP,≤ 0.25
8,KSGD,≤ 0.25
9,FTHR,≤ 0.25
10,YENP,≤ 0.25
11,HREY,≤ 0.25
12,IWQN,≤ 0.25
13,AIGH,2.15
14,TRPK,≤ 0.25
15,EIFE,≤ 0.25
16,CCDL,≤ 0.25
17,SEDR,≤ 0.25
18,YDFG,≤ 0.25
19,WEKR,≤ 0.25
20,IKQV,≤ 0.25
21,LIMF,≤ 0.25
22,SYPY,≤ 0.25
23,SLFS,≤ 0.25
24,RAAR,≤ 0.25
25,SGIC,8.34

row,Variant,enrichment ratio
1,SMHI,≤ 0.25
2,HVQK,≤ 0.25
3,MRMT,≤ 0.25
4,LMYH,≤ 0.25
5,QEPM,≤ 0.25
6,ALLQ,14.7
7,SCDW,≤ 0.25
8,KRQI,≤ 0.25
9,VFYK,≤ 0.25
10,NDIA,≤ 0.25
11,PMQN,≤ 0.25
12,ACNY,0.855
13,KHVW,≤ 0.25
14,YANW,≤ 0.25
15,PTQL,≤ 0.25
16,WPTR,≤ 0.25
17,FPLW,≤ 0.25
18,LNIF,≤ 0.25
19,ERML,≤ 0.25
20,HGVN,≤ 0.25
